Test results as given in ChEMBL document CHEMBL1201862, “PubChem BioAssay data set” (2004).
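Step 1: Grow cells in 96-well plates. Step 2: Expose to compound for 48 hours at 5 concentrations. Step 3: Interpolate endpoints linearly; if unreached, use highest concentration. GI50 marks 50% less growth.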 Calls of active or inactive are those of the source. Rule as the data show it: active = GI50 up to about 1.1 µM and inactive = higher.

What follows are compounds tested on NCI-H322M (assay: NCI anticancer screen, dose series, 48 h).
`O=[N+]([O-])c1ccc(C2=Nn3c(nnc3-c3ccc(Cl)cc3)SC2)o1` was tested, and the GI50 was inactive: 14.8 µM.
`NS(=O)(=O)c1nnc(NS(=O)(=O)C(F)(F)F)s1` was tested, and the GI50 was inactive: > 100 µM.
With `N=C(CC/C(N)=N/O)NO` the GI50 was inactive: > 100 µM.
`O=C(O)c1c(-c2c3ccc(=O)cc-3oc3cc(O)ccc23)cc2ccccc2c1-c1ccccc1` was tested, and the GI50 was inactive: > 100 µM.
For `Cc1nccn1S(=O)(=O)c1ccc(Br)cc1Br`, the GI50 was inactive: 52.5 µM.
With `O=C1c2cscc2C(=O)c2c(OCc3ccccc3)ccc(OCc3ccccc3)c21` the GI50 was inactive: > 100 µM.
With `Cc1ccc2nc(-c3ccc(N)c(Br)c3)sc2c1` the GI50 was inactive: 36.6 µM.
With `CCOc1ccccc1-c1nc2c(s1)C(=O)c1ccccc1C2=O` the GI50 was inactive: 15.9 µM.
With `CCN(CC)CCOc1ccc(N2Cc3ccccc3C2=O)cc1` the GI50 was inactive: > 10 µM.
`c1ccc2c(c1)ccc1nc(-c3ccc4c(c3)OCO4)c3c(c12)CCCC3` was tested, and the GI50 was inactive: 81.8 µM.
In the case of `O=C(Nc1ccc(F)cc1)C(=O)C(C(=O)c1ccccc1F)C1OC(=O)c2ccccc21` (configuration not stated), the GI50 is reported as inactive: 36.1 µM.
For `O=Cc1ccc2[nH]c(=O)oc2c1`, the GI50 was inactive: > 100 µM.
`CC1C(=NO)C(C)C(c2ccccc2)N(N=O)C1c1ccccc1` (configuration not stated) was tested, and the GI50 was inactive: 16.6 µM.
`CC1=C2C(O)C(C(C)C(=O)NC(C)C)CCC2(C)C=CC1=O` (configuration not stated) was tested, and the GI50 was inactive: > 100 µM.
For `CC(C)(C)OC(=O)[C@@H]1CCC(=S)N1Cc1ccccc1`, the GI50 was inactive: > 100 µM.
`Cc1cccc(N/C(Sc2ccccc2)=C(/C(Cl)=C(Cl)Cl)[N+](=O)[O-])c1` was tested, and the GI50 was inactive: 21.2 µM.
For `CN1C(=O)c2c(c3c4ccccc4n(C)c3c3c2c2ccccc2n3C)C1=O`, the GI50 was inactive: > 100 µM.
For `Nc1nc(F)nc2c1ncn2C1OC(COP(=O)(O)O)C(O)C1O` (configuration not stated), the GI50 was inactive: 242 µM.
`Clc1ccc(/C=c2\nc(-c3ccccc3)n3c2nc2ccccc23)cc1` was tested, and the GI50 was inactive: > 100 µM.
With `Cc1ccc(O)c(C(c2cccc(C(c3cc(C)ccc3O)c3cc(C)ccc3O)c2)c2cc(C)ccc2O)c1` the GI50 was inactive: 1.61 µM.
With `COC(=O)c1sc2nc(Nc3ccccc3)/c(=N\c3ccccc3)sc2c1C` the GI50 was inactive: > 100 µM.
`Cc1ccccc1N(CCC#N)C1=NN(C(=O)CC(=O)Nc2ccc(Cl)cc2)C(c2ccccc2)C1` (configuration not stated) was tested, and the GI50 was inactive: > 100 µM.
For `c1ccc(-c2nnc(SCc3c[nH]c4ccccc34)n2-c2ccccc2)cc1`, the GI50 was inactive: 28.1 µM.
For `O=C(O)CCc1ccc2c(c1)CC1(Cc3ccccc3C1)C2`, the GI50 was inactive: > 100 µM.
For `CCOC(=O)CC/C(=N/Nc1ccc(Cl)cc1[N+](=O)[O-])C(=O)OCC`, the GI50 was inactive: > 100 µM.
In the case of `O=c1[nH]nc(-c2ccccc2)n1/N=C/c1ccc([N+](=O)[O-])cc1`, the GI50 is reported as inactive: 12 µM.
`CN(C)c1ccccc1CC(c1c[nH]c2ccccc12)c1c[nH]c2ccccc12` was tested, and the GI50 was inactive: 14 µM.
In the case of `CC(C)Oc1c(C2(c3ccccc3O)SCCCS2)c(=O)c1=O`, the GI50 is reported as inactive: > 100 µM.
In the case of `N#Cc1c(-c2ccccc2)c(/C=N/c2ccc(Cl)cc2)c(=O)n2c1[nH]c1ccccc12`, the GI50 is reported as inactive: > 100 µM.
For `O=c1cc(NNCc2ccccc2)[nH]c(=O)[nH]1`, the GI50 was inactive: > 100 µM.
In the case of `O=C(Oc1ccc(OC(Oc2ccccc2)c2ccccc2)cc1)c1ccccc1` (configuration not stated), the GI50 is reported as inactive: > 31.6 µM.
In the case of `COc1cc(C(C)c2cc3c(cc2OCCCCOc2cc4c(cc2C(C)c2cc(OC)c(OC)c(OC)c2)OCO4)OCO3)cc(OC)c1OC` (configuration not stated), the GI50 is reported as inactive: 80.9 µM.
`O=[N+]([O-])c1ccc2nc(=S)[nH]n2c1` was tested, and the GI50 was inactive: > 100 µM.
For `C/C(=N\NC(=[Se])N1CCN(c2ccccn2)CC1)c1ccccn1`, the GI50 was active: 0.01 µM.
For `O=C(Cc1ccccc1CCO)NCCc1ccccc1`, the GI50 was inactive: > 100 µM.
`O=C1C/C(=N/c2ccc(Cl)cc2)C(c2ccccc2)N1c1ccccc1` (configuration not stated) was tested, and the GI50 was inactive: 20.2 µM.
`COC(=O)C(Cc1ccc2c(c1)OCO2)(NC(=O)c1ccccc1)P(=O)(OC)OC` (configuration not stated) was tested, and the GI50 was inactive: > 100 µM.
With `CNCCCCN(C)/[N+]([O-])=N\O` the GI50 was inactive: > 100 µM.
For `COC(=O)C(=O)C1(CCC(C)=O)c2ccccc2-c2ccccc21`, the GI50 was inactive: > 100 µM.
For `Cc1ccnc2nc3[nH]c4ccccc4c3cc12`, the GI50 was inactive: > 100 µM.
With `O=C(N/N=C1\C(=O)Nc2c(Cl)cc(Cl)cc21)C(=O)Nc1cccc(C(F)(F)F)c1` the GI50 was inactive: > 100 µM.
For `CCOC(=O)NC(Nc1ccc(Cl)cn1)(C(F)(F)F)C(F)(F)F`, the GI50 was inactive: > 100 µM.
In the case of `O=C1CC2=CCCC2O1` (configuration not stated), the GI50 is reported as inactive: > 100 µM.
`CCc1c[n+]([O-])c(C)cc1[N+](=O)[O-]` was tested, and the GI50 was inactive: 30.1 µM.
`CCC1=C(C)C(=O)N/C1=C\c1[nH]c(C)c([C@H](C)CCN)c1C` was tested, and the GI50 was inactive: 14.7 µM.
For `O=C(/C=C\c1cccc2ccccc12)c1ccc(F)cc1`, the GI50 was inactive: 21.5 µM.
In the case of `Cc1cccc(/N=N/c2c(C)nn(C(=O)CC(=O)Nc3ccccc3)c2C)c1`, the GI50 is reported as inactive: > 100 µM.
For `CC(=O)Oc1ccc2cc(Oc3cc(Cl)c(Cl)cc3Cl)c(=O)oc2c1`, the GI50 was inactive: 23.4 µM.
`CCCC/C=C1\CCC(CN2CCCCC2)C1=O` (configuration not stated) was tested, and the GI50 was inactive: 32.5 µM.
In the case of `O=C1c2ccccc2C(=O)N1CC1S(=O)(=O)OCCOS1(=O)=O`, the GI50 is reported as inactive: > 100 µM.
In the case of `COC(=O)c1cc(OC(C)=O)c2c(OC)ccc(OC)c2c1`, the GI50 is reported as inactive: > 100 µM.
For `Cc1c(NC(=S)NC(=O)c2ccc([N+](=O)[O-])cc2)c(=O)n(-c2ccccc2)n1C`, the GI50 was inactive: > 100 µM.
`CCCCc1ccc(Nc2nc3c(ncn3C3CC(O)C(CN=[N+]=[N-])O3)c(=O)[nH]2)cc1` (configuration not stated) was tested, and the GI50 was inactive: > 100 µM.
In the case of `Cn1ccnc1Sc1ccc(/C=N\NC(=O)c2cccc(F)c2)cc1[N+](=O)[O-]`, the GI50 is reported as inactive: 25.8 µM.
In the case of `COC(=O)c1cc(C)ccc1CC(Cc1ccccc1C)C(=O)OC` (configuration not stated), the GI50 is reported as inactive: > 100 µM.
For `CN(C)CCNC(=O)c1cccc2nc3c(C(=O)NCCN(C)C)cccc3nc12`, the GI50 was active: 0.695 µM.
`CC(C(=O)O)/C(=C\c1ccc2c(c1)OCO2)C(=O)O` (configuration not stated) was tested, and the GI50 was inactive: > 52.2 µM.
`CCOC(=O)C1(Cc2ccccc2)CCCCCN1` (configuration not stated) was tested, and the GI50 was inactive: > 100 µM.
In the case of `O=c1c2ccccc2[nH]c(=S)n1-c1ccc(/N=N/c2cccc3cc(O)ccc23)cc1`, the GI50 is reported as inactive: > 100 µM.
With `CCOC(=O)C(NC(=O)CC)(N1CCN(c2cc3c(cc2F)c(=O)c(C(=O)O)cn3C2CC2)CC1)C(F)(F)F` (configuration not stated) the GI50 was inactive: 46.6 µM.
In the case of `O=C1C=CC(=O)c2c1ccc1c3ccccc3n(CCCCCCCCn3c4ccccc4c4ccc5c(c43)C(=O)C=CC5=O)c21`, the GI50 is reported as inactive: > 100 µM.
In the case of `CCN1CCC(O)(/C=C/c2ccccc2C)C(C(=O)/C=C/c2ccccc2C)C1` (configuration not stated), the GI50 is reported as inactive: 3.48 µM.
With `Cc1ccc(/N=N/c2c(O)c(C(=O)O)cc3ccccc23)c(S(=O)(=O)O)c1` the GI50 was inactive: > 100 µM.
In the case of `COC(=O)[C@@H]1C(=O)O[C@@H](c2ccc3c(c2)OCO3)[C@@H]1C(=O)OC.COC(=O)[C@H]1C(=O)O[C@@H](c2ccc3c(c2)OCO3)[C@@H]1C(=O)OC`, the GI50 is reported as inactive: > 100 µM.
For `NC1CCC[C@H]1O` (some centres not stated), the GI50 was inactive: > 100 µM.
With `CC(=O)Oc1ccc(/C=C/C(=O)NCC(NC(=O)/C=C/c2ccc(OC(C)=O)c(OC(C)=O)c2)C(=O)O)cc1OC(C)=O` (configuration not stated) the GI50 was inactive: > 100 µM.
With `O=C1NC(Cc2c[nH]c3ccccc23)C(=O)N2C(C3CCCCC3)c3[nH]c4ccccc4c3C[C@@H]12` (some centres not stated) the GI50 was inactive: 21.1 µM.
